In PubChem BioAssay AID1159614 (National Center for Advancing Translational Sciences (NCATS), 2016):
Screen size: about 45,000 compounds; about 65 (0.1%) were called active. Calls come from the whole dose curve; as a rule, active = well fitted activation curve with a large enough effect; inconclusive = small, poorly fitted or top-dose-only effect; inactive = no such curve, though single readings can be large or run the other way. The list shows a part of the results.

molecular target: Galactocerebrosidase (Homo sapiens) (UniProt P54803); test: A Novel Cell-Based Assay to Identify Small Molecules for B -Galactocerebrosidase; conditions: 145M-Twi-hGALC-G270D cells (Twitcher mouse brain line with human GALC G270D), HMU-beta-Gal fluorescence, 48 h; series mostly up to 57.5 µM; activation: at the top concentration; note: nearly all actives have a fitted effect of over 65% in size; for activation: 0% is about no effect
Chain of UniProt P54803 (P54803 whole entry, looked up): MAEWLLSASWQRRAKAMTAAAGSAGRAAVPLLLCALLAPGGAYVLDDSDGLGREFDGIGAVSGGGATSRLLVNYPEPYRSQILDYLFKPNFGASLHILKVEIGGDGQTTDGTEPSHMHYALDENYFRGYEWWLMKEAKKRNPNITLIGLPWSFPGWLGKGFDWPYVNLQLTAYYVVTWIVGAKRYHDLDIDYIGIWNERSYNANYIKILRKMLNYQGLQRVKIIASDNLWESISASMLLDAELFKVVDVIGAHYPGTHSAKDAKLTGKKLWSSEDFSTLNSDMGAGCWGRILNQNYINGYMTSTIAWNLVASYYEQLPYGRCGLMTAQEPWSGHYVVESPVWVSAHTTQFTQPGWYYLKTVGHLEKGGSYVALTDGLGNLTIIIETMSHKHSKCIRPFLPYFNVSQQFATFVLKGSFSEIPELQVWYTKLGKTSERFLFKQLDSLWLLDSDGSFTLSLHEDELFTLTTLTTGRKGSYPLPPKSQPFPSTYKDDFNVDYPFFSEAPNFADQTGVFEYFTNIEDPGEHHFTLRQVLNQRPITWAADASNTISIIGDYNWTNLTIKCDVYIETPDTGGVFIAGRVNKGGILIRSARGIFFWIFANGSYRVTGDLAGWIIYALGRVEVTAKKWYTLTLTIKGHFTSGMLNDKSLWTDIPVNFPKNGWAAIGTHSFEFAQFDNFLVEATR
How it was run: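 Live 145M-Twi cells (Twitcher mouse brain-derived, GALC-null) stably expressing human GALC-G270D, with a wild-type GALC line, were compound-treated. Residual GALC activity was then read as fluorescence from 0.1 mM final HMU-β-gal at pH 5.2; higher signal means activation.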
Potency is the fitted concentration of half-maximal effect.

Row | Structure (SMILES) | activation | Potency
1 | Cc1ccc(Cl)cc1NC(=O)c1oc2ccc(S(=O)(=O)N(C)C3CCCCC3)cc2c1C | inactive: -13.9% | 
2 | Cc1ccc(S(=O)(=O)c2cn(Cc3cccc(C)c3)c3cc4c(cc3c2=O)OCO4)cc1 | inactive: -13.9% | 
3 | CCOc1ccc(CN2C(=O)c3ccccc3Sc3ccc(C(=O)O)cc32)cc1 | inactive: -2.76% | 
4 | O=C(NCCc1ccc(Cl)cc1)C(=O)NCC(c1ccco1)S(=O)(=O)c1ccc(Cl)cc1 (stereo unspecified) | inactive: -10.7% | 
5 | Cc1ccc2c(c1)c(=O)c(C(=O)c1ccc3c(c1)OCO3)cn2Cc1ccc(Cl)cc1 | inactive: 5.83% | 
6 | COc1cc(NC(=O)CCc2c(C)nc3cc(-c4ccccc4)nn3c2C)cc(OC)c1OC | inactive: -9.67% | 
7 | CCOc1ccc(CN(C(=O)c2cc(=O)c3cc(C)cc(C)c3o2)C2CCS(=O)(=O)C2)cc1 (stereo unspecified) | inactive: -19.4% | 
8 | CCC(CC)C(=O)Nc1nnc(SCc2cc(=O)n3cccc(C)c3n2)s1 | inactive: -20.9% | 
9 | CSc1ccc(/C=C/c2nc3ccccc3n2S(=O)(=O)c2cccc(Cl)c2)cc1 | inactive: -14.8% | 
10 | CN(C(=O)CSc1nnc(-c2ccccc2F)o1)C1CCCCC1 | inactive: 1.44% | 
11 | c1coc(-c2nc3n(n2)C2(CCCCC2)[C@@H]2CCCC[C@@H]2N3)c1 | inactive: -13.4% | 
12 | Cc1oc2ncnc(N3CCCCC3)c2c1C(=O)N1CCN(c2cccc(Cl)c2)CC1 | inactive: -18.7% | 
13 | CCCN1C(=O)C2(c3ccccc31)c1c(oc3ccc(F)cc3c1=O)C(=O)N2CCCOC(C)C (stereo unspecified) | inactive: -6.49% | 
14 | O=C(Nc1cccc(F)c1)C1CCN(S(=O)(=O)c2cccc3nsnc23)CC1 | inactive: -12.3% | 
15 | COc1ccc(CCNS(=O)(=O)c2cc(-c3cc(C)no3)ccc2C)cc1OC | inactive: -10.3% | 
16 | CCn1cc2nc(SCc3cccc(Cl)c3)n(Cc3ccc(C)cc3)c(=O)c2n1 | inactive: -6.86% | 
17 | CC(C)c1cnc2c(c1SCC(=O)Nc1cccc(F)c1)c(=O)n(C)c(=O)n2C | inactive: -6.97% | 
18 | Cc1ccc(Cl)cc1Nc1nn2c(=O)c3ccc(C(=O)N4CCCC(C)C4)cc3nc2s1 (stereo unspecified) | inactive: -10.3% | 
19 | CN(C)c1ccc(CNC(=O)CCn2cccn2)cc1 | inactive: -9.22% | 
20 | CCc1ccc(CN2CCc3nc(N4CCN(CC)CC4)ncc3C2)cc1 | inactive: 1.18% | 
21 | CCN(C(=O)CSc1nc(-c2ccc(C(C)C)cc2)no1)c1cccc(C)c1 | inactive: 3.15% | 
22 | CCCCCCc1ccc(O)cc1O | inactive: -17.1% | 
23 | Cc1cccc(C(=O)Nc2nnc(S(=O)(=O)N(C)c3ccccc3C)s2)c1 | inactive: -29.8% | 
24 | Cc1ccc(-n2c(-c3ccco3)nc3c(cnn3-c3ccccc3Cl)c2=O)cc1 | inactive: 2.4% | 

Row | Structure (SMILES) | activation | Potency
25 | COc1ccc(OC)c(NS(=O)(=O)c2ccc(-c3cc(C)no3)s2)c1 | inactive: -3.22% | 
26 | COc1ccc(CNC(=O)CCCn2nc(C)c3c(C)n(-c4ccccc4)nc3c2=O)cc1 | inactive: -14.6% | 
27 | CCCN(CCC)S(=O)(=O)c1ccc(C(=O)Nc2sc3c(c2C(=O)OC)CCN(CC)C3)cc1 | inactive: -22.1% | 
28 | CSc1ccc(C2c3c(oc4cc(C)cc(C)c4c3=O)C(=O)N2Cc2ccco2)cc1 (stereo unspecified) | inactive: -10.9% | 
29 | Cc1ccc(CCNC(=O)c2ccc3c(c2)N(Cc2cccc(Cl)c2)C(=O)c2ccccc2S3(=O)=O)cc1 | inactive: -17.8% | 
30 | O=C(Nc1cccc(C(F)(F)F)c1)C1CCCN1S(=O)(=O)c1cccc2nsnc12 (stereo unspecified) | inactive: -6.91% | 
31 | c1ccc(CSc2nc3ncccc3[nH]2)cc1 | inactive: -1.39% | 
32 | Cc1cc(C)cc(OC(C)C(=O)Nc2c(C(=O)c3ccccc3)oc3ccccc23)c1 (stereo unspecified) | inactive: -0.815% | 
33 | CCN(CC)C(=O)Cn1c(=O)n(-c2ccc(Cl)cc2)c(=O)c2c3c(sc21)CCC3 | inactive: -0.495% | 
34 | CCOC(=O)c1c(C)[nH]c(C)c1S(=O)(=O)N1CCN(c2cccc(C(F)(F)F)c2)CC1 |  | active: 1120 nM
35 | O=C1c2[nH]nc(-c3ccccc3O)c2C(c2cccc(OCc3ccccc3)c2)N1CCO (stereo unspecified) | inactive: -13.3% | 
36 | COc1ccc(CCNC(=O)C(=O)NCC(c2cccs2)S(=O)(=O)c2ccc(C)cc2)cc1 (stereo unspecified) | inactive: -9.83% | 
37 | COc1ccc(C(=O)COC(=O)C(Cc2c[nH]c3ccccc23)NC(=O)c2ccc(C(C)(C)C)cc2)cc1 (stereo unspecified) | inactive: -17.5% | 
38 | COc1ccc(-n2nc(C)c3c(C(F)(F)F)cc(-c4cccnc4)nc32)cc1 | inactive: -11.8% | 
39 | Cc1cn2c(=O)cc(COC(=O)c3cccc(NC(=O)c4ccccc4C)c3)nc2s1 | inactive: 3.37% | 
40 | Cc1ccc(S(=O)(=O)N2CCC(C(=O)Nc3ccc(C)c(Cl)c3)CC2)cc1 | inactive: -25.6% | 
41 | CC1(C)NC(=O)N(c2ccc([N+](=O)[O-])c(C(F)(F)F)c2)C1=O | inactive: -13.9% | 
42 | COc1cccc(N2CCN(C(=O)CCS(=O)(=O)c3ccc4c(c3)oc(=O)n4C)CC2)c1 | inactive: -19.2% | 
43 | COCCCNC(=O)C1CCN(c2nc3ccc(C)cc3[nH]2)CC1 | inactive: -6.12% | 
44 | CCOC(=O)c1cc(OC(=O)c2ccccc2C)n(-c2ccccc2)n1 | inactive: -8.86% | 
45 | CC(=O)c1ccc(NC(=O)Cn2nc(N3CCN(c4ccccc4)CC3)ccc2=O)cc1 | inactive: -12% | 
46 | COc1ccccc1OC(C)C(=O)Nc1cccc(-c2nc3ccccc3o2)c1 (stereo unspecified) | inactive: -17% | 
47 | CC(=O)c1sc(N2C(=O)c3oc4ccccc4c(=O)c3C2c2ccc(C)cc2)nc1C (stereo unspecified) | inactive: -18.8% | 
48 | CCC(Sc1nnc(C)n2c1cc1occc12)C(=O)Nc1ccccc1OC (stereo unspecified) | inactive: -16.8% | 

Row | Structure (SMILES) | activation | Potency
49 | CCN(Cc1ccccc1)C(=O)c1cnn(-c2ccc(F)cc2)c1-n1cccc1 | inactive: -12.3% | 
50 | CCCn1c2ccccc2c2nnc(SCC(=O)Nc3cccc(C(C)=O)c3)nc21 | inactive: -18.4% | 
51 | Cc1ccc(NC(=O)c2cnn3c2NC(c2ccccc2)=CC3c2ccccc2)cc1 (stereo unspecified) | inactive: 3.42% | 
52 | CC(C)c1nc2ccc(C(=O)Nc3ccccc3F)cc2o1 | inactive: -11.4% | 
53 | O=C(NCc1cccnc1)c1nn(-c2ccc(F)cc2)nc1CO | inactive: 8.57% | 
54 | CCCSc1nc2c([nH]c3ccccc32)c(=O)n1C | inactive: -8.33% | 
55 | Cc1ccc(Cl)cc1N1CCN(S(=O)(=O)c2ccc3c(c2)CCN3C(=O)C2CCC2)CC1 | inactive: -18.3% | 
56 | COc1ccccc1CNC(=O)CSC1=Nc2ccccc2N=C(c2ccc(F)cc2)C1 | inactive: -2.93% | 
57 | CCc1ccc(NS(=O)(=O)c2ccc3[nH]cc(C(=O)NCCCOC(C)C)c(=O)c3c2)cc1 | inactive: -7.02% | 
58 | CCOc1cc(CNC(=O)CN2CCSc3ccccc32)cc(OCC)c1OCC | inactive: -4.93% | 
59 | COc1cccc(NC(=O)Cn2c(=O)n(Cc3ccccc3)c(=O)c3ccccc32)c1 | inactive: -13.1% | 
60 | Cc1ccc(N(CC(=O)Nc2ccc(Cl)cc2)S(=O)(=O)c2cccc3nonc23)cc1 | inactive: -8.33% | 
61 | CCSc1nc2n(n1)C(c1ccc(C(=O)O)cc1)C(C(=O)Nc1ccccc1C)=C(C)N2 (stereo unspecified) | inactive: -14.8% | 
62 | CN1C(C(=O)Nc2ccc(OC(F)(F)F)cc2)=CC(c2cccs2)=NS1(=O)=O | inactive: -8.08% | 
63 | COc1ccc(NC(=O)c2oc3ccccc3c2NC(=O)COc2ccc(C(C)C)cc2)c(OC)c1 | inactive: -3.91% | 
64 | O=C(Nc1ccccc1Cl)c1sc2cccc(Cl)c2c1Cl | inactive: -8.95% | 
65 | Cc1ccc(-n2ncc(C(=O)N3CCCCC3)c2C2CCN(C(=O)OC(C)(C)C)CC2)c(C)c1 | inactive: -4.71% | 
66 | COc1ccc(-n2c(=O)[nH]c3cc(C(=O)NCCc4ccccc4)ccc3c2=O)cc1OC | inactive: -13.6% | 
67 | CCCS(=O)(=O)c1nc(S(=O)(=O)c2ccc(C)cc2)c(NC)s1 | inactive: -11.4% | 
68 | O=C(COc1ccccc1)Nc1ccc2nc(SCC(=O)N3CCOCC3)sc2c1 | inactive: -2.1% | 
69 | CCOC(=O)c1c(NC(=O)c2ccc(OC)cc2)sc2c1CCCCC2 | inactive: -23.3% | 
70 | Cc1ccc(NC(=O)Cc2coc3ccc(C(C)C)cc23)cc1Cl | inactive: -53.3% | 
71 | CN(C)c1ccc(CNC(=O)Cn2c(=O)oc3cc(S(=O)(=O)N4CCCCCC4)ccc32)cc1 | inactive: -7.29% | 
72 | COc1ccc(N2CCN(CCCNC(=O)Nc3ccccc3)CC2)cc1 | inactive: -15.8% | 

Row | Structure (SMILES) | activation | Potency
73 | O=C(CCC1N=C2c3ccccc3N=C(SCc3ccc(Cl)cc3)N2C1=O)N1CCN(c2ccccc2)CC1 (stereo unspecified) | inactive: -11.4% | 
74 | Fc1ccc(-c2nc(Nc3cccc(C(F)(F)F)c3)nc3c2COc2ccccc2-3)cc1 | inactive: -9.75% | 
75 | COc1ccc(-n2c(SCC(=O)NCc3ccc(C)cc3)nc3n[nH]c(C)c3c2=N)cc1 | inactive: -3.74% | 
76 | COC(=O)c1sccc1S(=O)(=O)N(CC(=O)NCc1ccc(C)cc1)c1ccc(C)cc1 | inactive: -14.8% | 
77 | Cc1ccc(CSc2nnc3[nH]c(=O)cc(-c4ccccc4)n23)cc1 | inactive: -5.51% | 
78 | O=C(CSc1nnc(-c2ccc(F)cc2)o1)N1CCCc2ccccc21 | inactive: -9.28% | 
79 | O=C(O)c1ccccc1-c1ccc(C(F)(F)F)cc1 | inactive: -15% | 
80 | CCn1cc(C(=O)NCc2ccc(Cl)cc2)c(=O)c2cc(S(=O)(=O)N(C)C3CCCCC3)ccc21 | inactive: -0.448% | 
81 | CCOC(=O)C1=C(CN2CCN(c3cccc(Cl)c3)CC2)NC(=O)NC1c1ccc(Cl)cc1 (stereo unspecified) | inactive: -4.2% | 
82 | CCN(Cc1ccccc1)S(=O)(=O)c1ccc(-c2coc(C)n2)cc1 | inactive: -36.4% | 
83 | CC(CNC(=O)c1ccc2nc(Cc3ccccc3)oc2c1)c1ccccc1 (stereo unspecified) | inactive: -12.2% | 
84 | O=C(Cn1ncc2c3ccccc3n(Cc3ccc(F)cc3)c2c1=O)NCc1cccs1 | inactive: -14.2% | 
85 | Fc1ccc(C2=CC(c3ccc(F)cc3)n3c(nc4ccccc43)N2)cc1 (stereo unspecified) | inactive: -9.16% | 
86 | Cc1cc(-n2c(C)nc3ccccc3c2=O)ccc1NC(=O)C(F)(F)F | inactive: -27.3% | 
87 | COc1ccc(NC(=O)CCCn2nc(C)c3sc4ccccc4c3c2=O)cc1 | inactive: -1.48% | 
88 | COc1ccc(S(=O)(=O)NCCSc2nnnn2-c2ccccc2)cc1 | inactive: -8.45% | 
89 | Cc1cc(C(=O)Nc2ccc(-n3c(C)nc4ccccc4c3=O)cc2)ccc1[N+](=O)[O-] | inactive: -12.5% | 
90 | COc1ccc(NS(=O)(=O)c2ccc3nc(-c4ccccc4)[nH]c3c2)cc1 | inactive: -27.8% | 
91 | CCC(C)Nc1ncnc2c1cnn2-c1ccc(F)cc1 (stereo unspecified) | inactive: -8.31% | 
92 | CC1CCCN(S(=O)(=O)c2ccc3c(c2)CCN3C(=O)CCC(=O)O)C1 (stereo unspecified) | inactive: -10.6% | 
93 | CCS(=O)(=O)CCn1c([N+](=O)[O-])cnc1C | inactive: -19.1% | 
94 | O=C(NCC(c1ccc(Cl)cc1)N1CCOCC1)c1ccccc1F (stereo unspecified) | inactive: -27.5% | 
95 | CCOc1ccc(-c2nnc(SCC(=O)Nc3cccc(OC)c3)nc2-c2ccc(OCC)cc2)cc1 | inactive: 7.12% | 
96 | O=C1CCc2cc(OCCCCc3nnnn3C3CCCCC3)ccc2N1 | inactive: -17.3% | 
